Hit rate of the full screen: of about 110,000 compounds, about 230 (0.21%) showed an effect of 50% or more. The list shows a part of the results.
target: DPAP1 (Plasmodium falciparum, UniProt Q8IIJ9); experiment: primary screen, percent inhibition; read by cleavage of a fluorogenic dipeptide substrate; higher = more effect of the substance; design: species or system P. falciparum D10 trophozoite lysates; single well
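Note: 30 min substrate incubation versus DMSO and 10 µM JCP410 controls.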

DPAP1, sequence (Q8IIJ9 whole entry, looked up): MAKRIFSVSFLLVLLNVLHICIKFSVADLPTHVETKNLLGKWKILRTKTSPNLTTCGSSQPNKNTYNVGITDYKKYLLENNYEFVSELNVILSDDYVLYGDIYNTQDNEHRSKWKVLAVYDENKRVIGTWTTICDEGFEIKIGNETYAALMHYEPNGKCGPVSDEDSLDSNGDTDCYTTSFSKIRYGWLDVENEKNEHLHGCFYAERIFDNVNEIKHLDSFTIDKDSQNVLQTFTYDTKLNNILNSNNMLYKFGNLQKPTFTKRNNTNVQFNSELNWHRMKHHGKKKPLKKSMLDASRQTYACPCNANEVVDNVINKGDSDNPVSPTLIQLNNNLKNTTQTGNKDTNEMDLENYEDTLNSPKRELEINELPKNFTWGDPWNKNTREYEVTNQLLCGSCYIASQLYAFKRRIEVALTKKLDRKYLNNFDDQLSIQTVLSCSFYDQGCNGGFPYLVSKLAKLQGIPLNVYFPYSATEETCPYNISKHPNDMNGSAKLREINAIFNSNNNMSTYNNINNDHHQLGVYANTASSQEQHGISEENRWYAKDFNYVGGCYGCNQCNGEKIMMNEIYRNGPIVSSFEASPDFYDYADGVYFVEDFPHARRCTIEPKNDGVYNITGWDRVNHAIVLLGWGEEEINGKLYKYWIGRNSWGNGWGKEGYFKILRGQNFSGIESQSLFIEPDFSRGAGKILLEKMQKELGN

SMILES | % Inhibition @ 10 uM [%]
CCOC(=O)Nc1ccc(-c2cccc(C(CS(=O)(=O)Cc3ccccc3)C(=O)NCC#N)c2)cc1 (centres unmarked) | -7.21
C=C(C)CSc1nc2nc(C)cc(C)n2n1 | -2.91
Cc1ccc(S(=O)(=O)N(CC(=O)NC(C)(C)C)c2cc(C)ccc2C)cc1 | -7.28
OCCC12CC3CC(C1)CC(CCO)(C3)C2 | -2.59
COc1ccc(Cn2c(=O)c3cccnc3n(Cc3cc(=O)n4cc(Cl)ccc4n3)c2=O)cc1 | 1.72
CCCCC(=O)Nc1ccc(C2C(=O)c3ccccc3C2=O)cc1 | -2.32
Cc1ccccc1Cn1cc(NC(=O)C2CC2)cn1 | 11
CCN(c1ccccc1)S(=O)(=O)c1ccc(NC(=O)c2cccs2)cc1 | -0.132
COc1c(C(=O)NCCSc2ccccn2)ccc2ccccc12 | 2.72
COCCN1C(=O)/C(=C/c2ccc3c(c2)OCO3)S/C1=N\c1ccccc1 | 4.08
Cc1ccc(-c2cc(C(=O)NC(C)C)c3ccccc3n2)cc1C | -0.519
COc1ccc(-c2cn3nc4c(nc3n2)CCCC4)cc1 | 5.35
CC1CCC(N2CCCn3c2nc2c3c(=O)n(C)c(=O)n2C)CC1 (centres unmarked) | -6.2
c1ccc(-c2cc(NCc3ccco3)n3cnnc3n2)cc1 | -2.57
COc1ccc(N(CC(=O)NC2CCCC2)S(=O)(=O)c2ccc(C)cc2)cc1Cl | -0.46
CCOc1ccc(N(CC(=O)N2CCCCCC2)S(=O)(=O)c2ccc(C)cc2)cc1 | 4.41
COc1cc(NC(=O)c2ccc(Cn3nc(C)c(Br)c3C)o2)cc(OC)c1OC | 5.59
Cc1ccc(C(=O)c2ccc(Oc3ccccc3)cc2)cc1C | -11
O=C1c2ccccc2C(=O)N1CC1c2ccccc2CCN1C(=O)C12CC3CC(CC(C3)C1)C2 (centres unmarked) | -3.41
CN1C(=O)NC(=O)/C(=C\c2ccc(OCc3ccc(C(=O)O)cc3)c(Br)c2)C1=O | -2.26
CCN1CCN(C(=O)c2ccc(F)cc2)CC1 | 2.65
O=C(O)/C=C\C(=O)Nc1ccc(-c2ccccc2)cc1 | 1.23
O=C(O)c1ccccc1C(=O)Nc1ccc(Br)c(Cl)c1 | -4.35
CCOc1cc(Br)c(C2C(C#N)=C(N)OC3=C2C(=O)CC(C)(C)C3)cc1OCC (centres unmarked) | -1.07
CCSc1nnc(NC(=O)c2cnc(SC)nc2-c2ccccc2)s1 | 2.25

SMILES | % Inhibition @ 10 uM [%]
Cc1cccc(NC(=O)CC2S/C(=N/c3ccc(F)cc3)N(C)C2=O)c1 (centres unmarked) | -0.622
CC(C)(C)CC(=O)NCc1cn2ccsc2n1 | 3.94
Cc1cc(C)c(-c2[nH]nc3c2C(c2cccc(O)c2)N(CCCO)C3=O)c(O)c1 (centres unmarked) | 3.27
Cc1ccccc1S(=O)(=O)Cc1ccc(C(=O)NCCCN(C)Cc2ccccc2)o1 | -4.53
O=C(NCC1CCCCC1)c1nnc(O)c2ccccc12 | 9.78
CC1(C)CC(NC(=O)c2cccc(F)c2)CC(C)(C)N1 | -1.33
CCOc1ccccc1NC(=O)C1CC(=O)N(c2ccc(C)cc2)C1 (centres unmarked) | 8.94
O=C(NC1CCCCCC1)C1c2ccccc2C(=O)N2CCCCC12 (centres unmarked) | 4.01
O=C(Nc1ccccc1)NC1CCCCCC1 | -1.22
COc1cc(Br)c(C(C)NC(=O)c2ccccc2)cc1OC (centres unmarked) | 1.83
CC(=O)c1ccc(NC(=O)c2sc3nc4c(cc3c2N)CCCC4)cc1 | -0.545
COc1cc(C2Nc3ccccc3N=C3CC(c4ccccc4)CC(O)=C32)cc(OC)c1O (centres unmarked) | -7.4
COCc1cc(C2C(C#N)=C(N)OC3=C2C(=O)CCC3)ccc1OC (centres unmarked) | -5.48
Cc1cccc(CNS(=O)(=O)c2ccc(-c3ccc(O)nn3)s2)c1 | -6.64
CN(CCc1ccccn1)Cc1ccc2ccccc2c1 | -1.62
Cc1ccc2occ(CC(=O)Nc3sc4c(c3C(=O)NCC3CCCO3)CCC4)c2c1 (centres unmarked) | -2.4
COc1ccc(OC)c(NC(=O)Cn2nc(C(F)(F)F)cc2C2CC2)c1 | -3.72
Oc1cc(-c2ccccc2)nc2nc(CCc3ccccc3)nn12 | 1
COc1cc2c(C(=O)c3ccc(Br)cc3)c(C)oc2c2ccccc12 | 1.41
COC(=O)c1ccc(C2NC(=O)c3[nH]nc(-c4cccc(OC)c4)c32)cc1 (centres unmarked) | -3.35
CCCCCc1ccc(-c2ccc(-c3noc(C4CCC(CCCCC)CC4)n3)cc2)cc1 (centres unmarked) | -6.18
COc1ccc(C2C(=O)N(CCc3ccccc3)CC(=O)N2CCC2=CCCCC2)cc1 (centres unmarked) | 5.89
O=C(NC1CCCCC1)c1cccc(S(=O)(=O)N2CCCCC2)c1 | 1.63
CCSCCC(NC(=O)OCc1ccccc1)C(=O)NCC#N (centres unmarked) | -3.49
CC(=O)NCCc1nc2ccccc2n1Cc1c(C)c(C)cc(C)c1C | 1.12
